Structures can show the parent of a compound that is named as a salt. ± gives the standard deviation of the averaged measurements. Over roughly 1,900 compounds, “normalised cell viability (NPI; 0 = phenylarsine oxide control, 1 = DMSO control)” has its median near 1; the lowest 2% begin near 0.039. This is one part of the list.
System: NCI-H1944
Experiment: normalised cell viability (NPI; 0 = phenylarsine oxide control, 1 = DMSO control) (fraction of DMSO control); NCI-H1944 is a non-small cell lung cancer line; higher = more viable cells (less compound toxicity)
Conditions: 6 days
[1] = glucocorticoid arm: hydrocortisone 2.75 uM co-treatment, compound 1 µM
[2] = glucocorticoid arm: hydrocortisone 2.75 uM co-treatment, compound 5 µM
[3] = glucocorticoid arm: hydrocortisone 2.75 uM pre-treated 2 days and continued, compound 1 µM
[4] = glucocorticoid arm: hydrocortisone 2.75 uM pre-treated 2 days and continued, compound 5 µM
[5] = glucocorticoid arm: vehicle, compound 1 µM
[6] = glucocorticoid arm: vehicle, compound 5 µM
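Also: CTB read-out in 384-well plates, mean of triplicate wells, normalised per plate against 1 µM phenylarsine oxide and 0.1% DMSO, compounds added 24 h after seeding.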

| Structure (SMILES) | normalised cell viability [1] | normalised cell viability [2] | normalised cell viability [3] | normalised cell viability [4] | normalised cell viability [5] | normalised cell viability [6] |
| --- | --- | --- | --- | --- | --- | --- |
| CN1CC[C@H](c2c(O)cc(O)c3c(=O)cc(-c4ccccc4Cl)oc23)[C@H](O)C1 [Flavopiridol hydrochloride] | 0.0447 ± 0.0058 | 0.0238 ± 0.0012 | 0.066 ± 0.0098 | 0.0883 ± 0.016 | 0.0103 ± 0.0015 | 0.00802 ± 0.0019 |
| CN1CC[C@H](c2c(O)cc(O)c3c(=O)cc(-c4ccccc4Cl)oc23)[C@H](O)C1 [Flavopiridol (Alvocidib)] | 0.0613 ± 0.0073 | 0.0242 ± 0.0072 | 0.109 ± 0.015 | 0.0932 ± 0.025 | 0.0171 ± 0.0043 | 0.00703 ± 0.0012 |
| CC(N)=O [Acetamide] | 0.974 ± 0.013 | 0.955 ± 0.046 | 0.9897 ± 0.0032 | 0.948 ± 0.02 | 0.9883 ± 0.009 | 0.9837 ± 0.0085 |
| CC(C)(C)NC[C@H](O)COc1nsnc1N1CCOCC1 [Timolol Maleate] | 1.02 ± 0.01 | 1.04 ± 0.025 | 1.02 ± 0.017 | 1.023 ± 0.0058 | 1.007 ± 0.0058 | 1.01 |
| CC(C)(C)NC[C@H](O)COc1nsnc1N1CCOCC1 [S(-)-Timolol maleate] | 1.017 ± 0.0058 | 1.03 ± 0.021 | 0.836 ± 0.32 | 1.03 ± 0.011 | 1.01 ± 0.01 | 1.013 ± 0.0058 |
| C[C@]12CCC(=O)C=C1CC[C@@H]1[C@@H]2[C@@H](O)C[C@@]2(C)[C@H]1CC[C@]2(O)C(=O)COC(=O)CCC(=O)O [Hydrocortisone 21-hemisuccinate sodium salt] | 1.007 ± 0.0058 | 1.017 ± 0.0058 | 1.01 ± 0.01 | 1.04 ± 0.021 | 0.921 ± 0.017 | 0.832 ± 0.044 |
| FC(F)(F)c1ccccc1-n1ccnc1 [1-[2-(Trifluoromethyl)phenyl]imidazole] | 1 ± 0.014 | 0.992 ± 0.025 | 1 ± 0.03 | 0.996 ± 0.013 | 1.02 | 1.02 ± 0.01 |
| O=C(c1cccc(Cl)c1F)N1CCN(Cc2cccc(Nc3nccs3)n2)CC1 | 0.951 ± 0.018 | 1.033 ± 0.0058 | 0.983 ± 0.025 | 1.03 ± 0.015 | 0.574 ± 0.06 | 1.027 ± 0.0058 |
| COc1ccc(CCN(C)CCCC(C#N)(c2cc(OC)c(OC)c(OC)c2)C(C)C)cc1OC (racemic) [(±)-Methoxyverapamil hydrochloride] | 1.007 ± 0.0058 | 0.998 ± 0.039 | 1.01 ± 0.01 | 1.01 ± 0.019 | 0.9847 ± 0.0042 | 0.999 ± 0.018 |
| CCCCOC(=O)NS(=O)(=O)c1sc(CC(C)C)cc1-c1ccc(Cn2c(CC)nc3c(C)cc(C)nc32)cc1 | 1.005 ± 0.0087 | 1.05 ± 0.021 | 1.007 ± 0.0058 | 1.01 ± 0.015 | 0.99 ± 0.006 | 1.01 ± 0.015 |
| CO/N=C(\C(=O)N[C@@H]1C(=O)N2C(C(=O)O)=C(CSc3nc(=O)c(O)nn3C)CS[C@H]12)c1csc(N)n1 [Ceftriaxone sodium salt] | 0.985 ± 0.0052 | 0.995 ± 0.025 | 0.849 ± 0.22 | 0.992 ± 0.0057 | 0.964 ± 0.0069 | 0.9743 ± 0.006 |
| Oc1ccccc1O [Pyrocatechol] | 1.027 ± 0.0058 | 1.03 ± 0.01 | 1.02 | 1 ± 0.025 | 1.02 ± 0.011 | 1.02 ± 0.01 |
| COc1cc(OC)c2c(=O)[nH]c(-c3cc(C)c(OCCO)c(C)c3)nc2c1 | 0.979 ± 0.027 | 0.976 ± 0.068 | 0.958 ± 0.045 | 0.969 ± 0.021 | 0.9933 ± 0.0083 | 0.999 ± 0.0017 |
| COc1cccc(NC(=O)/C=C/c2ccc(Cl)cc2)c1 | 0.953 ± 0.015 | 0.884 ± 0.026 | 0.992 ± 0.029 | 0.941 ± 0.023 | 0.9757 ± 0.0093 | 0.9683 ± 0.0067 |
| CCCCN1CCC(COC(=O)c2cc(Cl)c(N)c3c2OCCO3)CC1 | 0.986 ± 0.012 | 0.933 ± 0.006 | 0.998 ± 0.029 | 0.945 ± 0.0035 | 0.9857 ± 0.0025 | 0.993 ± 0.006 |
| NC(CCCP(=O)(O)O)C(=O)O (racemic) [(±)-2-Amino-5-phosphonopentanoic acid] | 0.987 ± 0.0072 | 0.9967 ± 0.0031 | 0.9907 ± 0.0083 | 0.993 ± 0.0028 | 0.98 ± 0.0056 | 0.9857 ± 0.0098 |
| NCC(O)c1ccc(O)c(O)c1 (racemic) [(±)-Norepinephrine (+)bitartrate] | 0.98 ± 0.012 | 0.9907 ± 0.0029 | 0.987 ± 0.011 | 0.98 ± 0.021 | 0.985 ± 0.014 | 0.98267 ± 0.00058 |
| Cc1nc(NC(=O)N2CCC[C@H]2C(N)=O)sc1-c1csc(C(C)(C)C)n1 | 0.917 ± 0.015 | 0.732 ± 0.015 | 0.898 ± 0.022 | 0.746 ± 0.059 | 1.002 ± 0.0074 | 0.9607 ± 0.0086 |
| C=CCN1CCc2cc(O)c(O)cc2C(c2ccccc2)C1 (racemic) | 0.9573 ± 0.0023 | 1 ± 0.017 | 1 ± 0.017 | 1 ± 0.018 | 0.9713 ± 0.0011 | 0.9797 ± 0.0046 |
| O=C1CCC(c2ccc(-n3ccnc3)cc2)=NN1 [Imazodan] | 1.013 ± 0.0058 | 1.03 | 1.01 ± 0.01 | 1.03 ± 0.011 | 1.013 ± 0.0058 | 1.013 ± 0.0058 |
| CCNC(=O)N1CCN(CCCC(c2ccc(F)cc2)c2ccc(F)cc2)CC1 [Amperozide hydrochloride] | 1.017 ± 0.0058 | 1.01 ± 0.012 | 1.017 ± 0.0058 | 1.02 ± 0.035 | 0.997 ± 0.012 | 1.007 ± 0.0058 |
| Fc1ccc(C(OCCCc2cnc[nH]2)c2ccc(F)cc2)cc1 | 1.001 ± 0.009 | 0.993 ± 0.029 | 1.01 | 1.05 ± 0.075 | 0.985 ± 0.0062 | 1 ± 0.01 |
| CNC(=O)c1cc2c(cn1)[nH]c1ccccc12 [N-Methyl-beta-carboline-3-carboxamide] | 0.9957 ± 0.0011 | 0.986 ± 0.025 | 1 ± 0.014 | 1 ± 0.0087 | 0.9893 ± 0.0042 | 0.986 ± 0.001 |
| CC(C)(C)Cn1c(N)nc2ccc(-c3[nH]c(C(C)(C)C)nc3-c3ccc(F)cc3)nc21 | 0.67 ± 0.018 | 0.516 ± 0.024 | 0.675 ± 0.015 | 0.577 ± 0.01 | 0.939 ± 0.02 | 0.795 ± 0.023 |
| OC[C@H]1O[C@H]([S-])[C@H](O)[C@@H](O)[C@@H]1O.[Au+] [Aurothioglucose] | 0.996 ± 0.0036 | 0.993 ± 0.032 | 1 ± 0.018 | 1.01 ± 0.083 | 1.003 ± 0.0058 | 1.01 ± 0.01 |
| CCCN[C@H]1CCc2nc(N)sc2C1 [Pramipexole] | 0.995 ± 0.018 | 1 ± 0.0091 | 1.003 ± 0.0061 | 0.989 ± 0.037 | 0.9927 ± 0.006 | 0.999 ± 0.0017 |
